Reference: patent publication US4304715A, “Enkephalin analogues” (priority 1979, dated 1981)
Part of at least one peptide drawing is inferred or uncertain, most often the ends.

Tests used:
guinea pig ileum = assay: Guinea pig ileum (G.P.I.) opiate assay: inhibition of electrically induced contractions of the isolated preparation; format: cell-based; settings: Met Enkephalin = 100%
rat brain membranes = assay: Radio receptor assay (R.R.A.), an opiate binding assay: displacement of tritiated naloxone from rat brain membranes; settings: for Activity Relative to Met Enkephalin R.R.A.: based on concentration required to displace 50% of (3H)naloxone (1nM) from rat brain membranes, pH 7.4, 15 minutes, bacitracin, Met Enkephalin = 100%

SMILES	Activity Relative to Met Enkephalin G.P.I. (guinea pig ileum)	Activity Relative to Met Enkephalin R.R.A. (rat brain membranes)	activity in radio receptor assay (rat brain membranes; test of Bradbury et al, tritiated naloxone, rat brain membranes, compared with Met5-enkephalin standard)
CSCC[C@H](NC(=O)[C@H](Cc1ccccc1)NC(=O)CNCCNC(=O)[C@@H](N)Cc1ccc(O)cc1)C(N)=O [Analogue H220, H-Tyr-NH-CH2 -CH2 -NH-CH2 -CO-Phe-Met-NH2]	0.3%	3%	–
CCCC[C@H](NC(=O)[C@H](Cc1ccccc1)NC(=O)CNC(=O)CNC(=O)[C@@H](N)Cc1ccc(O)cc1)C(=O)O [Nle^5 -enkephalin, reference compound]	–	–	more active in this test system than Met^5 -enkephalin
CSCC[C@@H](CO)NC(=O)[C@H](Cc1ccccc1)NC(=O)CNC(=O)CNC[C@@H](N)Cc1ccc(O)cc1 [Analogue H216]	83%	200%	–
CSCC[C@H](NC(=O)[C@H](Cc1ccccc1)NC(=O)CNCCNC(=O)[C@@H](N)Cc1ccc(O)cc1)C(=O)O [Analogue H218, H-Tyr-NH-CH2 -CH2 -NH-CH2 -Co-Phe-Met-OH]	1%	5%	–
CSCC[C@@H](CO)NC(=O)[C@H](Cc1ccccc1)NC(=O)CNCCNC(=O)[C@@H](N)Cc1ccc(O)cc1 [Analogue H219, H-Tyr-NH-CH2 -CH2 -NH-CH2 -CO-Phe-Metol]	0.3%	3%	–
CSCC[C@H](NC(=O)[C@H](Cc1ccccc1)NC(=O)CNC(=O)CNC[C@@H](N)Cc1ccc(O)cc1)C(N)=O [Analogue H215, N-[2-amino, 3-(4'-hydroxyphenyl)propyl]glycyl-glycyl-L-phenylalanyl-L-methionine amide]	56%	50%	–
